{"source": "the supplement of paper PMC8728848", "experiment_in_all_cases": "glycan array binding signal (z-score within array); higher = stronger binding", "conditions_in_all_cases": "glycan notation: IUPAC condensed, linker removed", "key": {"Fuc(a1-2)Gal": {"biological_target": "Fuc(a1-2)Gal", "in_short": "(§1)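 From the Consortium for Functional Glycomics database, 3228 arrays were curated, keeping only those whose protein sequence was available. Binding is given as a within-array Z-score averaged across arrays sharing a protein sequence and across linkers. Negative Z-scores can be read as non-binding.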"}, "Fuc(a1-2)Gal(b1-3)GalNAc": {"biological_target": "Fuc(a1-2)Gal(b1-3)GalNAc", "in_short": "as §1"}, "[1]": {"biological_target": "Fuc(a1-2)Gal(b1-3)GalNAc(a1-3)[Fuc(a1-2)]Gal(b1-4)Glc", "in_short": "as §1"}, "[2]": {"biological_target": "Fuc(a1-2)Gal(b1-3)GalNAc(a1-3)[Fuc(a1-2)]Gal(b1-4)GlcNAc", "in_short": "as §1"}, "[3]": {"biological_target": "Fuc(a1-2)Gal(b1-3)GalNAc(b1-3)Gal", "in_short": "as §1"}, "[4]": {"biological_target": "Fuc(a1-2)Gal(b1-3)GalNAc(b1-3)Gal(a1-4)Gal(b1-4)Glc", "in_short": "as §1"}, "[5]": {"biological_target": "Fuc(a1-2)Gal(b1-3)GalNAc(b1-4)[Neu5Ac(a2-3)]Gal(b1-4)Glc", "in_short": "as §1"}, "Fuc(a1-2)Gal(b1-3)GlcNAc": {"biological_target": "Fuc(a1-2)Gal(b1-3)GlcNAc", "in_short": "as §1"}, "[6]": {"biological_target": "Fuc(a1-2)Gal(b1-3)GlcNAc(b1-2)Man(a1-3)[Fuc(a1-2)Gal(b1-3)GlcNAc(b1-2)Man(a1-6)]Man(b1-4)GlcNAc(b1-4)GlcNAc", "in_short": "as §1"}, "[7]": {"biological_target": "Fuc(a1-2)Gal(b1-3)GlcNAc(b1-2)Man(a1-3)[Fuc(a1-2)Gal(b1-3)GlcNAc(b1-2)Man(a1-6)]Man(b1-4)GlcNAc(b1-4)[Fuc(a1-6)]GlcNAc", "in_short": "as §1"}, "[8]": {"biological_target": "Fuc(a1-2)Gal(b1-3)GlcNAc(b1-3)Gal(b1-4)Glc", "in_short": "as §1"}, "[9]": {"biological_target": "Fuc(a1-2)Gal(b1-3)GlcNAc(b1-3)GalNAc", "in_short": "as §1"}, "[10]": {"biological_target": "Fuc(a1-2)Gal(b1-3)GlcNAc(b1-3)[Fuc(a1-2)Gal(b1-3)GlcNAc(b1-6)]GalNAc", "in_short": "as §1"}, "[11]": {"biological_target": "Fuc(a1-2)Gal(b1-3)GlcNAc(b1-3)[Gal(b1-4)GlcNAc(b1-6)]Gal(b1-4)Glc", "in_short": "as §1"}, "[12]": {"biological_target": "Fuc(a1-2)Gal(b1-3)GlcNAc(b1-3)[Neu5Ac(a2-6)Gal(b1-4)GlcNAc(b1-6)]Gal(b1-4)Glc", "in_short": "as §1"}, "[13]": {"biological_target": "Fuc(a1-2)Gal(b1-3)GlcNAc6S", "in_short": "as §1"}, "[14]": {"biological_target": "Fuc(a1-2)Gal(b1-3)[Fuc(a1-4)]GlcNAc", "in_short": "as §1"}, "[15]": {"biological_target": "Fuc(a1-2)Gal(b1-3)[Fuc(a1-4)]GlcNAc(b1-2)Man(a1-3)[Fuc(a1-2)Gal(b1-3)[Fuc(a1-4)]GlcNAc(b1-2)Man(a1-3)]Man(b1-4)GlcNAc(b1-4)GlcNAc", "in_short": "as §1"}, "[16]": {"biological_target": "Fuc(a1-2)Gal(b1-3)[Fuc(a1-4)]GlcNAc(b1-2)Man(a1-3)[Fuc(a1-2)Gal(b1-3)[Fuc(a1-4)]GlcNAc(b1-2)Man(a1-6)]Man(b1-4)GlcNAc(b1-4)[Fuc(a1-6)]GlcNAc(b1-4)[Fuc(a1-6)]GlcNAc", "in_short": "as §1"}, "[17]": {"biological_target": "Fuc(a1-2)Gal(b1-3)[Fuc(a1-4)]GlcNAc(b1-3)[Fuc(a1-3)[Gal(b1-4)]GlcNAc(b1-6)]Gal(b1-4)Glc", "in_short": "as §1"}, "[18]": {"biological_target": "Fuc(a1-2)Gal(b1-3)[Fuc(a1-4)]GlcNAc(b1-3)[Gal(b1-4)GlcNAc(b1-6)]Gal(b1-4)Glc", "in_short": "as §1"}, "Fuc(a1-2)Gal(b1-4)Glc": {"biological_target": "Fuc(a1-2)Gal(b1-4)Glc", "in_short": "as §1"}, "Fuc(a1-2)Gal(b1-4)Glc6S": {"biological_target": "Fuc(a1-2)Gal(b1-4)Glc6S", "in_short": "as §1"}, "Fuc(a1-2)Gal(b1-4)GlcNAc": {"biological_target": "Fuc(a1-2)Gal(b1-4)GlcNAc", "in_short": "as §1"}, "[19]": {"biological_target": "Fuc(a1-2)Gal(b1-4)GlcNAc(b1-2)Man", "in_short": "as §1"}, "[20]": {"biological_target": "Fuc(a1-2)Gal(b1-4)GlcNAc(b1-2)Man(a1-3)[Fuc(a1-2)Gal(b1-4)GlcNAc(b1-2)Man(a1-6)]Man(b1-4)GlcNAc(b1-4)GlcNAc", "in_short": "as §1"}, "[21]": {"biological_target": "Fuc(a1-2)Gal(b1-4)GlcNAc(b1-2)Man(a1-3)[Fuc(a1-2)Gal(b1-4)GlcNAc(b1-2)Man(a1-6)]Man(b1-4)GlcNAc(b1-4)[Fuc(a1-6)]GlcNAc", "in_short": "as §1"}, "[22]": {"biological_target": "Fuc(a1-2)Gal(b1-4)GlcNAc(b1-2)[Fuc(a1-2)Gal(b1-4)GlcNAc(b1-4)]Man(a1-3)[Fuc(a1-2)Gal(b1-4)GlcNAc(b1-2)Man(a1-6)]Man(b1-4)GlcNAc(b1-4)GlcNAc", "in_short": "as §1"}, "[23]": {"biological_target": "Fuc(a1-2)Gal(b1-4)GlcNAc(b1-3)Gal(b1-4)GlcNAc", "in_short": "as §1"}, "[24]": {"biological_target": "Fuc(a1-2)Gal(b1-4)GlcNAc(b1-3)Gal(b1-4)GlcNAc(b1-2)Man(a1-3)[Fuc(a1-2)Gal(b1-4)GlcNAc(b1-3)Gal(b1-4)GlcNAc(b1-2)Man(a1-6)]Man(b1-4)GlcNAc(b1-4)GlcNAc", "in_short": "as §1"}}, "note": "The list shows a part of the results."}
{"binder": "Pa IMPa (Pseudomonas aeruginosa), Q9I5W4 (protein) MSLSTTAFPSLQGENMSRSPIPRHRALLAGFCLAGALSAQAATQEEILDAALVSGDSSQLTDSHLVALRLQQQVERIRQTRTQLLDGLYQNLSQAYDPGAASMWVLPANPDNTLPFLIGDKGRVLASLSLEAGGRGLAYGTNVLTQLSGTNAAHAPLLKRAVQWLVNGDPGAATAKDFKVSVVGVDKTAALNGLKSAGLQPADAACNALTDASCASTSKLLVLGNGASAASLSATVRARLQAGLPILFVHTNGWNQSSTGQQILAGLGLQEGPYGGNYWDKDRVPSSRTRTRSVELGGAYGQDPALVQQIVDGSWRTDYDWSKCTSYVGRTTCDDVPGLSDFSKRVDVLKGALDAYNQKAQNLFALPGTTSLRLWLLWADAVRQNIRYPMDKAADTARFQETFVADAIVGYVREAGAAQKELGSYAGQRQQSMPVSGSEETLTLTLPSAQGFTAIGRMAAPGKRLSIRIEDAGQASLAVGLNTQRIGSTRLWNTRQYDRPRFLKSPDIKLQANQSVALVSPYGGLLQLVYSGATPGQTVTVKVTGAASQPFLDIQPGEDSSQAIADFIQALDADKADWLEIRSGSVEVHAKVEKVRGSIDKDYGGDVQRFIRELNEVFIDDAYTLAGFAIPNQAKTPAIQQECAARGWDCDSETLHKLPGTQHINVDQYAQCGGGCSGNPYDQTWGLNPRGWGESHELGHNLQVNRLKVYGGRSGEISNQIFPLHKDWRVLREFGQNLDDTRVNYRNAYNLIVAGRAEADPLAGVYKRLWEDPGTYALNGERMAFYTQWVHYWADLKNDPLQGWDIWTLLYLHQRQVDKSDWDANKAALGYGTYAQRPGNSGDASSTDGNDNLLLGLSWLTQRDQRPTFALWGIRTSAAAQAQVAAYGFAEQPAFFYANNRTNEYSTVKLLDMSQGSPAWPFP", "values": [{"measurement": "glycan array binding signal (z-score)", "setting": "Fuc(a1-2)Gal", "value": -0.235}, {"measurement": "glycan array binding signal (z-score)", "setting": "Fuc(a1-2)Gal(b1-3)GalNAc", "value": -0.198}, {"measurement": "glycan array binding signal (z-score)", "setting": "[1]", "value": -0.49}, {"measurement": "glycan array binding signal (z-score)", "setting": "[2]", "value": -0.027}, {"measurement": "glycan array binding signal (z-score)", "setting": "[3]", "value": 0.398}, {"measurement": "glycan array binding signal (z-score)", "setting": "[4]", "value": 0.225}, {"measurement": "glycan array binding signal (z-score)", "setting": "[5]", "value": -0.354}, {"measurement": "glycan array binding signal (z-score)", "setting": "Fuc(a1-2)Gal(b1-3)GlcNAc", "value": -0.318}, {"measurement": "glycan array binding signal (z-score)", "setting": "[6]", "value": -0.426}, {"measurement": "glycan array binding signal (z-score)", "setting": "[7]", "value": 0.41}, {"measurement": "glycan array binding signal (z-score)", "setting": "[8]", "value": 0.384}, {"measurement": "glycan array binding signal (z-score)", "setting": "[9]", "value": 0.19}, {"measurement": "glycan array binding signal (z-score)", "setting": "[10]", "value": -0.057}, {"measurement": "glycan array binding signal (z-score)", "setting": "[11]", "value": -0.248}, {"measurement": "glycan array binding signal (z-score)", "setting": "[12]", "value": 0.272}, {"measurement": "glycan array binding signal (z-score)", "setting": "[13]", "value": -0.327}, {"measurement": "glycan array binding signal (z-score)", "setting": "[14]", "value": -0.558}, {"measurement": "glycan array binding signal (z-score)", "setting": "[15]", "value": 0.633}, {"measurement": "glycan array binding signal (z-score)", "setting": "[16]", "value": 0.203}, {"measurement": "glycan array binding signal (z-score)", "setting": "[17]", "value": 0.631}, {"measurement": "glycan array binding signal (z-score)", "setting": "[18]", "value": -0.597}, {"measurement": "glycan array binding signal (z-score)", "setting": "Fuc(a1-2)Gal(b1-4)Glc", "value": 0.197}, {"measurement": "glycan array binding signal (z-score)", "setting": "Fuc(a1-2)Gal(b1-4)Glc6S", "value": -0.308}, {"measurement": "glycan array binding signal (z-score)", "setting": "Fuc(a1-2)Gal(b1-4)GlcNAc", "value": -0.264}, {"measurement": "glycan array binding signal (z-score)", "setting": "[19]", "value": -0.136}, {"measurement": "glycan array binding signal (z-score)", "setting": "[20]", "value": -0.12}, {"measurement": "glycan array binding signal (z-score)", "setting": "[21]", "value": -0.011}, {"measurement": "glycan array binding signal (z-score)", "setting": "[22]", "value": -0.167}, {"measurement": "glycan array binding signal (z-score)", "setting": "[23]", "value": -0.125}, {"measurement": "glycan array binding signal (z-score)", "setting": "[24]", "value": 0.167}]}
